PubChem BioAssay AID1963576 (National Center for Advancing Translational Sciences (NCATS), 2024)
Out of some 46,000 compounds screened, about 60 (0.1%) were called active. About 3% were inconclusive and are not listed. The call rests on the fitted dose curve; in most records, active means well fitted inhibition curve with a large enough effect; inconclusive means small, poorly fitted or top-dose-only effect; inactive means no such curve, though single readings can be large or run the other way. The list shows a part of the results.

Assay: Primary qHTS assay for Inhibitors of ovarian cancer metastasis using an organotypic tumor microenvironment (TME) model. Further: nearly all actives have a fitted effect of over 65% in size.
Settings: SKOV3ip1-GFP adhesion/invasion on 3D omental model, fluorescence; series mostly up to 45.8 µM; activity change, negative = inhibition: at the top concentration
Description: PI: Ernst Lengyel MD., Ph.D. Department of Obstetrics and Gynecology, Section of Gynecologic Oncology University of Chicago Medicine, Chicago, Illinois. The tumor microenvironment (TME) is a key determinant of metastatic efficiency. We performed a quantitative high-throughput screen (qHTS) of diverse medicinal chemistry tractable scaffolds (44,420 compounds) and pharmacologically active small molecules (386 compounds) using a layered organotypic, robust assay representing the ovarian cancer metastatic TME. This 3D model contains primary human mesothelial cells, fibroblasts, and extracellular matrix, to which fluorescently labeled ovarian cancer cells are added. Initially, 100 compounds inhibiting ovarian cancer adhesion/invasion to the 3D model in a dose-dependent manner were identified. Of those, eight compounds were confirmed active in five high-grade serous ovarian cancer cell lines and were further validated in secondary in vitro and in vivo biological assays. […] Specifically, NCGC00117362 and PP-121 inhibited ovarian cancer adhesion, invasion, and proliferation, whereas milciclib inhibited ovarian cancer invasion and proliferation. […] To evaluate the clinical potential of NCGC00117362, structure - activity relationship studies were performed. […] The three compounds identified have promise as therapeutics for prevention and treatment of ovarian cancer metastasis.
PROTOCOL TABLE (as described by Inglese J, Shamu CE and Guy RK. 2007) SEQUENCE No. (e.g., 1, 2, 3, etc.); […] (e.g., Cells, Incubation, Reagent, etc.); VALUE; DESCRIPTION. 1; Cells; 4 uL; primary human omental fibroblast, black, clear bottom, low base, 1536-well Aurora assay plate. 2; Incubation; 48 hr; 37C. 3; Cells; 3 uL; 1,200 SKOV3ip1-GFP cells. 4; Compounds; 23nL; acoustic dispenser. 5; Incubation; 2 hr; room temperature. 6; Incubation; 16 hr; 37C. 7; Wash; 5 uL; 1x PBS. 8; Fixing; 5 uL; 4% paraformaldehyde (PFA). 9; Incubation; 15 min; room temperature 10; Wash, 5 uL; 1x PBS. 11; Detection; Fluorescence, excitation filter 488 nm, emission filter 509 nm. NOTES (numbers refer to Sequence numbers above) 1. For the 1,536-well format, 40 primary human omental fibroblasts and 400 mesothelial cells were seeded with 0.02 µg fibronectin and 0.02 µg collagen type I in 4 µL of growth media (2.3 mm2; Supplementary Fig. S1A). 2. Assay plates were incubated for 48 hours at 37 C. 3. After incubation, 1,200 SKOV3ip1-GFP were seeded in 3 µL of serum-free media (growth media minus FBS) on top of primary human omental cells. 4. Compounds or controls were added to each well immediately after the addition of the cancer cells. Compounds were screened in four doses (0.36-46 µmol/L), and the plates contained the positive control (Tomatine) in eight doses (0.035-75 µmol/L) and DMSO (equal volume controls) 5 - 6. The plates were incubated at room temperature for 2 hours and then at 37 degrees C for 16 hours. 7 - 10. Following incubation, the media were aspirated and each well washed with PBS (5 µL) and then fixed with 4% paraformaldehyde (PFA; 5 µL). After 15 minutes, the PFA solution was aspirated, PBS (5 µL) was added. 11. The number of GFP-labeled cells analyzed using a fluorescent cytometer TTP LabTech Acumen eX3 using 488 nm excitation filter and 509 nm emission filter. Data was normalized to the DMSO treated for negative and Tomatine treated wells for positive control. REFERENCES: Inglese J, Shamu CE and Guy RK, Reporting data from high throughput screening of small molecule libraries, Nature Chemical Biology, 2007, 3(8): 438-441. doi.org/10.1038/nchembio0807-438. Yasgar A, Shinn P, Jadhav A, Auld DS, Michael S, Zheng W, Austin CP, Inglese J and Simeonov A, Compound Management for Quantitative High-Throughput Screening. J. Assoc. Lab. Auto., 2008, 13: 79-89. doi: 10.1016/j.jala.2007.12.004.

Activity change, negative = inhibition, inactive:
CCC(=O)N1CCc2cc(Br)cc(S(=O)(=O)N3CCCC(C(=O)Nc4ccc(CC)cc4)C3)c21 (stereo unspecified) 0.615%, CCOc1ccccc1CNS(=O)(=O)c1cnc(N)nc1 -18.7%, COc1ccccc1Cn1c(CNS(=O)(=O)c2ccc(Cl)s2)nc2cccnc21 -4.45%, CCOC(=O)c1ccc(N2CCN(c3cccc(Cl)c3)CC2)c(NC(=O)Nc2ccc(Cl)cc2)c1 -0.103%, O=C1Nc2c(c(=O)[nH]c(=O)n2-c2ccc(Cl)cc2)C1(NS(=O)(=O)c1ccccc1)C(F)(F)F (stereo unspecified) -9.43%, Cc1ccc(C)c(NC(=O)CCn2cnnn2)c1 -8.01%, O=C(Nc1ccccc1C(=O)OCc1cc(=O)n2c3c(sc2n1)CCCC3)c1ccc(Cl)cc1 -5.45%, Cc1nnc(N2CCN(c3ccccc3)CC2)c2c1nnn2Cc1ccc(F)cc1 9.59%, CCOC(=O)c1[nH]c(C)c(CCC(=O)N2CCN(c3cc(Cl)ccc3C)CC2)c1C -11.5%, CCOC(=O)c1c(C)[nH]c(C)c1S(=O)(=O)N1CCCC(C(=O)N2CCN(c3ccc(Cl)cc3)CC2)C1 (stereo unspecified) 3.16%, CCCCOC(=O)c1ccc(NC(=O)c2ccc3c(c2)CCN3S(=O)(=O)c2ccccc2)cc1 -0.147%, Cc1cnc2c(c1SCC(=O)N(C)c1ccccc1)c(=O)n(C)c(=O)n2C 0.531%, O=C(CCCn1c(=O)c2sccc2n(Cc2c(F)cccc2Cl)c1=O)NCc1ccccc1 2.22%, Cn1c(=O)c2c(-c3ccccc3Br)n(C(C)(C)C)cc2n(C)c1=O 6.56%, CCOC(=O)CSc1nc2sc3c(c2c(=O)n1CC)CCCC3 3.13%, COc1ccc(C2CC(=O)c3cc(-c4nc(-c5cccc([N+](=O)[O-])c5)cs4)c(=O)n(-c4cc(C)cc(C)c4)c3C2)cc1 (stereo unspecified) 8%, COc1ccc(C)cc1N(CC(=O)N1CCC(C)CC1)S(=O)(=O)c1ccc(C)cc1 -3.43%, Cc1c(-c2nc(-c3ccc4c(c3)[nH]c(=O)n4C)no2)cccc1[N+](=O)[O-] 40.3%, COc1ccccc1N1CCN(C(=O)c2ccc3c(c2)N(Cc2ccccc2)C(=O)c2ccccc2S3(=O)=O)CC1 -3.95%, Cc1cccc(NC(=O)Cn2nc(C)c3nn(-c4ccc(Cl)cc4)c(C)c3c2=O)c1C -21.3%, Cc1cc(C)cc(NC(=O)CSCc2cc(=O)c3cc(Cl)ccc3[nH]2)c1 -0.535%, Cc1ccc(N2CCN(Cc3nnc(-c4ccc5c(c4)OCO5)o3)CC2)c(C)c1 0.827%, COCCNC(=O)CSc1nc2cc3c(cc2c(=O)n1CCCCCC(=O)NCCc1ccc(OC)c(OC)c1)OCO3 7.31%, O=C(CSc1nnc(-c2cccs2)o1)Nc1cccc(C(F)(F)F)c1 -8.67%, CN1C(C(=O)Nc2ccccn2)=C(O)c2ccccc2S1(=O)=O -27.2%, CCN(CC)c1ccc(NC(=O)C(NS(=O)(=O)c2cccs2)C(C)C)c(C)c1 (stereo unspecified) -0.627%, O=C(OCc1ccccc1F)c1ccc(-c2nnn(Cc3ccccc3)n2)cc1 -2.96%, Cc1cc2c(cc1S(=O)(=O)CCC(=O)NCc1ccccc1)OCC(=O)N2 43.7%, Cc1c(CC(=O)N2CCCCC2)c(=O)oc2c(C)c(O)ccc12 -26.5%, O=C(Cc1ccccc1)NC1CC(=O)N(c2ccc3c(c2)OCCO3)C1 (stereo unspecified) -3.69%, COc1ccc(-n2nnnc2C2CCN(S(=O)(=O)c3cccc(Cl)c3C)CC2)cc1 -15.3%, Cc1ccc(NC(=O)CSc2nnc(C)n3c2cc2sccc23)c(C)c1 0.445%, CCOc1ccccc1NC(=O)CSc1nnc(N)s1 -7.67%, COc1cccc(NC(=O)CSc2nc3c([nH]c4ccccc43)c(=O)n2-c2ccccc2)c1 -2.1%, Cc1ccccc1-c1nnc(CN2CCN(c3cccc(C)c3C)CC2)o1 4.32%, CCC(=O)Nc1ccccc1-c1nc2ccccc2n(CC(=O)c2ccc(C)c(C)c2)c1=O -7.84%, O=S(=O)(Nc1cccc(-c2ccc(N3CCCCCC3)nn2)c1)c1ccccc1F 2.87%, O=C(NCc1ccccc1Cl)c1cc2c(s1)-c1ccccc1SC2 -2.2%, O=C(Cn1ncc2c3ccccc3n(Cc3ccccc3F)c2c1=O)NC1CCCCCC1 -23.1%, Cc1ccc(CSc2ccc(-c3cccs3)nn2)cc1 7.31%, COCCNC(=O)C(=O)NCC(c1cccnc1)N1CCN(c2ccccc2OC)CC1 (stereo unspecified) 4.44%, Cc1ccc(-c2cc(-c3ccc4c(c3)NC(=O)CO4)nc3c2COc2ccc(C)cc2-3)cc1 4.13%, Cc1nc2nc(SCc3c(F)cccc3Cl)nn2c(C)c1Cc1ccccc1 -9.21%, CN(C)S(=O)(=O)c1ccc(C(=O)NCCS(=O)(=O)N2CCN(c3ccccc3)CC2)cc1 -19.1%, COc1cc(C2c3c(-c4c(C)cc(C)cc4O)n[nH]c3C(=O)N2CCO)cc(OC)c1OC (stereo unspecified) 6.53%, O=C(CN1C(=O)COc2ccc(S(=O)(=O)N3CCOCC3)cc21)N1CCN(c2cccc(C(F)(F)F)c2)CC1 -5.39%, CCc1nc2sc3c(N4CCC(C)CC4)ncnc3c2c2c1CCCC2 1.17%

outcome, inactive:
O=C(Nc1ccc(F)cc1F)c1ccc(-c2ccccc2)s1, CCCC(=O)Nc1ccc2nn(-c3ccc(CC)cc3)nc2c1, Nc1c(C(=O)c2ccc3c(c2)OCO3)sc(Nc2ccccc2F)c1S(=O)(=O)c1ccccc1, Cc1ccc2nc(CSc3nnc(NC(=O)COc4ccccc4F)s3)cc(=O)n2c1, Cc1cccc(-c2noc(CN(C(C)C)S(=O)(=O)c3ccc(Br)cc3)n2)c1, CC1(C)CC(=O)c2cc(-c3nc(-c4ccc(Br)cc4)cs3)c(=O)n(-c3ccccc3)c2C1, COc1ccc(-c2cc(C(F)(F)F)n3nc(-c4ccc(Cl)cc4)cc3n2)cc1OC, Cc1cccc(N2C(=O)CSC23C(=O)N(CC(=O)NCCc2ccccc2)c2ccccc23)c1 (stereo unspecified), O=C1c2ccccc2-c2onc3c(Br)cc(NC4CCCCC4)c1c23, CN(C(=O)c1cnc(N2CCOCC2)c2ccccc12)c1ccccc1F, Brc1ccc(-c2nnc3sc(CN4CCCCC4)cn23)cc1, COc1cc(C(=O)NCC(c2cccnc2)N2CCc3ccccc3C2)cc(OC)c1OC (stereo unspecified), CC(C)(C)NC(=O)c1cnn(-c2ccccc2)c1C1CCN(C(=O)OC(C)(C)C)CC1, Cc1oc2ncn(C)c(=O)c2c1C(=O)Nc1ccccn1
